The campaign covered roughly 280,000 compounds. About 100 (0.036%) were called active. The shares of active, inactive and inconclusive entries below differ from those in the screen. The call rests on the fitted dose curve; in most records, active means well fitted inhibition curve with a large enough effect in the signal ratio, with a control signal flat (not every such curve was filed as active); inconclusive means small, poorly fitted or top-dose-only effect, or effect the other way, or a change in a side signal; inactive means no such curve, though single readings can be large or run the other way; the % refers to the signal ratio. Potencies beside an inconclusive call are fits to weak or partial responses and may not hold up. A note “side channel” means that the fit belongs to a control or component signal, not to the main read-out.
molecular target: Muscleblind-like protein 1 (Homo sapiens) (UniProt Q9NR56); experiment: qHTS Assay for Inhibitors of MBNL1-poly(CUG) RNA binding; conditions: TR-FRET MBNL1-His/biotin-(CUG)12 binding, 665/545 ratio; activity change, negative = inhibition: at 57.5 µM (top of the series)
Outline: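 His-tagged MBNL1 binding to biotinylated (CUG)12 RNA was measured by TR-FRET using terbium anti-His antibody (0.055 ng/ul final) and streptavidin-XL665 (5 nM final). Compounds were titrated 92 nM to 58 uM; 60 min at room temperature.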
On the % scale 0 is the no-effect control and ±100 the full control effect; potency means the concentration at half of the fitted maximal effect; tags describe the fitted curve by direction and shape or compound fluorescence and quenching.

Chain of UniProt Q9NR56 (Q9NR56 whole entry, looked up): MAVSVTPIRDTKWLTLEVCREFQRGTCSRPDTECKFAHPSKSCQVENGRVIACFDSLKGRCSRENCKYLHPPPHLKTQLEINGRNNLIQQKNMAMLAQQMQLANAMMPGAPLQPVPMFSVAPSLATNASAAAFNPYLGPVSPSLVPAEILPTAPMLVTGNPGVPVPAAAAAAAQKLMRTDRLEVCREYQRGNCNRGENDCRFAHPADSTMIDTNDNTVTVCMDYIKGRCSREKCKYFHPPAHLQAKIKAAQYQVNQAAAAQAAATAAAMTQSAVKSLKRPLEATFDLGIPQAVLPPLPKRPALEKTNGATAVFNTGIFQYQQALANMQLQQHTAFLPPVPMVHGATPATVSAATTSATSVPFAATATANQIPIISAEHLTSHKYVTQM

| Structure (SMILES) | Potency | activity change, negative = inhibition |
| --- | --- | --- |
| O=C(NCc1ccco1)C1CC(c2cccc([N+](=O)[O-])c2)=NO1 (stereo unspecified) | inconclusive: 25.1 µM [quencher, side channel, partial curve] | – |
| CCn1cc(C2=NC(c3ccccc3)CO2)c2ccccc21 (stereo unspecified) | – | inactive: -8.57% |
| Cc1ccc(C)c(CN2CCC(CNC(=O)Nc3cccc(Cl)c3C)CC2)c1 | – | inactive: -1.38% |
| C/C(=N\NC(=O)c1ccc2c(c1)OCO2)c1ccc(C(=O)O)s1 | inconclusive: 6.31 µM [quencher, side channel, partial curve] | – |
| O=C(Nc1cccnc1Cl)C1=NN(c2ccccc2)C(=O)CC1 | – | inactive: -1.92% |
| O=C1c2ccccc2C(=O)c2c1cccc2N1CCN(Cc2ccccc2)CC1 | inconclusive: 15.8 µM [quencher, side channel, partial curve] | – |
| Cn1c2ccc(F)cc2c2nc3ccccc3nc21 | inconclusive: 3.98 µM [quencher, side channel, full curve, poor fit] | – |
| Cc1ccccc1OCC(=O)Nc1cc(Cl)ccc1Oc1ccccc1 | inconclusive: 25.1 µM [fluorescent, side channel, partial curve] | – |
| O=C(N/N=C/c1ccco1)c1cccc([N+](=O)[O-])c1 | inconclusive: 22.4 µM [quencher, side channel, partial curve] | – |
| O=C(COC(=O)c1ccc(N2CCOCC2)c([N+](=O)[O-])c1)Nc1ccc2c(c1)OCO2 | inconclusive: 39.8 µM [quencher, single point] | – |
| Cc1c(=O)n(OCc2ccccc2)c2ccccc2[n+]1[O-] | inconclusive: 12.6 µM [quencher, partial curve] | – |
| O=C(/C=C/c1ccc[nH]1)c1ccc(F)cc1 | inconclusive: 25.1 µM [quencher, side channel, single point] | – |
| CCC(C)c1ccccc1NC(=O)c1cccnc1 (stereo unspecified) | – | inactive: 1.74% |
| CNC(=O)c1ccc(Nc2nnc(-c3ccc(O)cc3)c3ccccc23)cc1 | inconclusive: 22.4 µM [quencher, side channel, partial curve] | – |
| Cc1ccc(S(=O)(=O)N/N=C\c2ccc([N+](=O)[O-])o2)cc1 | inconclusive: 2.82 µM [quencher, side channel, single point] | – |
| NS(=O)(=O)c1ccc(CCNC(=O)CSc2ccsc2[N+](=O)[O-])cc1 | inconclusive: 10 µM [quencher, side channel, partial curve] | – |
| O=[N+]([O-])C1C(c2ccccc2)=NOC1c1ccccc1O (stereo unspecified) | inconclusive: 22.4 µM [quencher, side channel, single point] | – |
| Cc1ccc(-c2nc3cc(NC(=O)C(C)C)ccc3o2)cc1C | inconclusive: 100 µM [inhibitor, single point] | – |
| O=C(Nc1nccs1)c1cc(-c2ccncc2)nc2ccccc12 | inconclusive: 39.8 µM [quencher, side channel, single point] | – |
| COc1ccc(NC(=O)CSc2ncn[nH]2)c([N+](=O)[O-])c1 | inconclusive: 17.8 µM [quencher, partial curve] | – |
| CCc1ccc(S(=O)(=O)/N=C2\C=C(NS(=O)(=O)c3ccccc3)C(=O)c3ccccc32)cc1 | inconclusive: 25.1 µM [quencher, side channel, partial curve] | – |

| Structure (SMILES) | Potency | activity change, negative = inhibition |
| --- | --- | --- |
| O=C(N/N=C/c1ccccc1)c1cc(=O)[nH]c2ccccc12 | – | inactive: 7.18% |
| N#CC1=C(N)Oc2n[nH]c(-c3cccs3)c2C1c1ccoc1 (stereo unspecified) | – | inactive: 3.71% |
| CCOC(=O)c1cc2cc3ccccc3cc2oc1=O | inconclusive: 3.16 µM [quencher, side channel, full curve] | – |
| CCOc1ccc2oc(C(=O)OCC(=O)NC3CC3)c(C)c2c1 | – | inactive: 33.1% |
| C=CCNC(=O)c1cc2cccc(OC)c2oc1=O | inconclusive: 39.8 µM [quencher, side channel, single point] | – |
| Clc1ccc(Cn2c(CN3CCCC3)nc3ccccc32)cc1 | – | inactive: 2.04% |
| COc1cc(Br)c(C(C)NC(=O)c2ccccc2)cc1OC (stereo unspecified) | – | inactive: -18.6% |
| CC(C)c1ccccc1NC(=S)NC1CCN(Cc2ccccc2)CC1 | – | inactive: -3.87% |
| O=C(Nc1cccc([N+](=O)[O-])c1)N1CCc2ccccc2C1 | inconclusive: 31.6 µM [quencher, single point] | – |
| COc1ccc(NC(=O)CNC(=O)c2ccc([N+](=O)[O-])cc2)cc1 | inconclusive: 15.8 µM [quencher, side channel, partial curve] | – |
| NC(=O)c1ccsc1N | inconclusive: 22.4 µM [quencher, side channel, partial curve, poor fit] | – |
| CC(C(=O)N1CCOCC1)N1C(=O)c2cccc3cccc(c23)C1=O (stereo unspecified) | inconclusive: 22.4 µM [quencher, partial curve] | – |
| Cc1ccc(/C=N/N2C(=S)SC(C)(C)C2N(O)C(=O)Nc2ccc([N+](=O)[O-])cc2)cc1 (stereo unspecified) | inconclusive: 39.8 µM [quencher, side channel, single point] | – |
| O=C(Nc1cccnc1Cl)c1cc(-c2cccc(O)c2)on1 | active: 7.08 µM | – |
| COC(=O)CCC(=O)NNC(=O)Cc1ccccc1 | inconclusive: 8.91 µM [quencher, side channel, partial curve] | – |
| O=C(COc1ccc(Cl)cc1)NCc1nnc2c3ccccc3c(-c3ccccc3)nn12 | inconclusive: 0.316 µM [fluorescent, side channel, partial curve] | – |
| O=c1c(OC2OC(CO)C(O)C(O)C2O)c(-c2ccc(O)c(O)c2)oc2cc(O)cc(O)c12 (stereo unspecified) | inconclusive: 20 µM [quencher, side channel, partial curve, poor fit] | – |
| Cn1nnnc1SCC(=O)Nc1cccc([N+](=O)[O-])c1 | inconclusive: 7.08 µM [quencher, side channel, partial curve] | – |
| O=[N+]([O-])c1ccc(N2CCOCC2)nc1 | inconclusive: 8.91 µM [quencher, side channel, partial curve] | – |
| COc1ccc(CNc2ncccc2[N+](=O)[O-])cc1 | inconclusive: 14.1 µM [quencher, side channel, partial curve] | – |
| CCCCN(C)CCNC(=O)C1CCCN(S(=O)(=O)c2cccc3nsnc23)C1 (stereo unspecified) | inconclusive: 10 µM [quencher, side channel, partial curve] | – |

| Structure (SMILES) | Potency | activity change, negative = inhibition |
| --- | --- | --- |
| O=C(c1ccc([N+](=O)[O-])cc1)N1CCN=C1SCc1ccccc1 | inconclusive: 14.1 µM [quencher, side channel, partial curve] | – |
| CC(c1nnc(SCC(=O)Nc2cc([N+](=O)[O-])ccc2F)n1Cc1ccccc1)N(C)C (stereo unspecified) | inconclusive: 15.8 µM [quencher, side channel, partial curve] | – |
| Nc1cc2c(cc1C(=O)c1ccccc1F)OCCO2 | inconclusive: 22.4 µM [quencher, side channel, single point] | – |
| COc1cc(NC(=S)NCCSc2ccc(C)cc2)cc(OC)c1 | inconclusive: 6.31 µM [fluorescent, side channel, partial curve, poor fit] | – |
| COc1ccc(NC(=S)NNc2ccc(C(=O)O)cc2)cc1 | inconclusive: 31.6 µM [quencher, side channel, single point] | – |
| COc1ccc(C(=O)OCC(=O)N2CCCCC2)cc1[N+](=O)[O-] | inconclusive: 14.1 µM [quencher, side channel, partial curve] | – |
| CC(=O)Nc1ccc(NC(=O)c2c([N+](=O)[O-])cnn2C)cc1 | inconclusive: 17.8 µM [quencher, side channel, partial curve] | – |
| O=C(Cn1ccc2ccccc2c1=O)NCC(=O)N1CCCCC1 | – | inactive: 2.11% |
| Cc1ccc(-c2nc(-c3ccccn3)no2)cc1 | – | inactive: 2.93% |
| O=c1[nH]n2c(=O)c3c([nH]c2c1N=Nc1cccc(Cl)c1)CCC3 | inconclusive: 12.6 µM [quencher, side channel, partial curve] | – |
| O=C(O)[C@H]1CCCC[C@H]1C(=O)Nc1cc([N+](=O)[O-])ccc1F | inconclusive: 14.1 µM [quencher, side channel, partial curve] | – |
| CC(=O)Nc1ccc(NC(=O)c2cc(=O)c3ccccc3o2)cc1 | inconclusive: 12.6 µM [quencher, side channel, partial curve] | – |
| CCOCCCNC(=O)C1CCCN(S(=O)(=O)c2cccc3nsnc23)C1 (stereo unspecified) | inconclusive: 14.1 µM [quencher, partial curve] | – |
| CSCCC(Nc1ccc(S(=O)(=O)N2CCOCC2)cc1[N+](=O)[O-])C(=O)OCC(=O)N(C(C)C)C(C)C (stereo unspecified) | inconclusive: 7.08 µM [quencher, side channel, partial curve] | – |
| CCSc1nnc(NC(=O)c2c(-c3ccccc3Cl)noc2C)s1 | inconclusive: 3.16 µM [quencher, side channel, partial curve] | – |
| OC(COCc1cccs1)CN1CCN(c2ccccc2Cl)CC1 (stereo unspecified) | inconclusive: 0.126 µM [fluorescent, side channel, partial curve, poor fit] | – |
| CCCN(CCC)C(=O)C1CCC(CNS(=O)(=O)c2cccc3nsnc23)CC1 (stereo unspecified) | inconclusive: 8.91 µM [quencher, side channel, partial curve] | – |
| COCCCNC1=C(Cl)C(=O)c2ccccc2C1=O | inconclusive: 11.2 µM [quencher, side channel, partial curve] | – |
| O=C(/C=C\c1ccco1)c1ccc(NC(=O)c2ccco2)cc1 | – | inactive: 6.02% |

Reference: PubChem BioAssay AID2675 (National Center for Advancing Translational Sciences (NCATS), 2010)
